Experimental data reported in PubChem BioAssay AID1963576 (National Center for Advancing Translational Sciences (NCATS), 2024).
Among all 46,000 compounds or so, about 60 (0.1%) were called active. About 3% were inconclusive and are not listed. The call rests on the fitted dose curve; in most records, active means well fitted inhibition curve with a large enough effect; inconclusive means small, poorly fitted or top-dose-only effect; inactive means no such curve, though single readings can be large or run the other way. The list shows a part of the results.

Test: Primary qHTS assay for Inhibitors of ovarian cancer metastasis using an organotypic tumor microenvironment (TME) model. Further: nearly all actives have a fitted effect of over 65% in size.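 On activity change, negative = inhibition: plate controls were DMSO wells for no effect and tomatine positive control wells for full effect.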
Details: SKOV3ip1-GFP adhesion/invasion on 3D omental model, fluorescence; series mostly up to 45.8 µM; activity change, negative = inhibition: at the top concentration
Outline: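 Primary human omental fibroblast/mesothelial 3D culture pre-formed 48 h. SKOV3ip1-GFP cells added with compounds (0.36-46 umol/L), incubated 2 h RT/16 h 37 C, fixed; GFP cells quantified at 488/509 nm.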

Structure (SMILES) | outcome | activity change, negative = inhibition
Cc1ccc(NC(=O)CCC(=O)N2Cc3ccccc3Oc3ncccc32)cc1F | inactive | 
COc1ccc(-c2nc3c(c(SCC(=O)Nc4ccccc4F)n2)Cc2cc(C)ccc2O3)cc1 |  | inactive: 10.4%
Cc1ccc(NC(=O)CCCc2nnc3n(C)c(=O)c4sccc4n23)cc1F |  | inactive: -5.59%
CC(=O)c1ccc(NC(=O)c2cc(S(=O)(=O)N3CCCCCC3)cn2C)cc1 |  | inactive: 2.3%
O=C(CNC(=O)c1ccccc1)OCc1cc(=O)n2ccsc2n1 | inactive | 
Cc1ccc(C)c(N2CCN(C(=O)C3CCCN(Cc4nc(-c5cccc(Cl)c5)oc4C)C3)CC2)c1 (configuration not stated) |  | inactive: 1.57%
CC1CCn2c(nc3cc(C(=O)NCc4ccccc4)ccc32)C1 (configuration not stated) |  | inactive: 7.54%
CCCNC(=O)c1ccc2c(c1)sc1nc(-c3ccc(C)cc3)cn12 |  | inactive: 11%
CCc1ccccc1NC(=O)CN1C(=O)c2ccccc2Sc2ncccc21 | inactive | 
NC(=O)C1(N2CCCCC2)CCN(C(=O)Nc2ccc(F)cc2)CC1 |  | inactive: 0.0056%
CCOC(=O)c1c(S(=O)(=O)N2CCCC(C(=O)NCc3cccc(OC)c3)C2)c(C)n(C)c1C (configuration not stated) | inactive | 
Cc1ccc(-c2cn(-c3cccc(Cl)c3)c(S(=O)(=O)CC(=O)Nc3cccc(C)c3)n2)cc1 |  | inactive: 2.46%
Cc1cccc(CS(=O)(=O)Cc2ccc(C(=O)NCCc3ccccc3)o2)c1 | inactive | 
COc1ccc(CCNc2nc(-c3ccc(OC)c(OC)c3)cc(C(F)(F)F)n2)cc1OC |  | inactive: 32.6%
Cc1cc(C)cc(-n2ccn(CC(=O)Nc3cc(C)ccc3C)c(=O)c2=O)c1 |  | inactive: -0.43%
CCn1cc(C(=O)NCCCN2CCCC(C)C2)c(=O)c2cc(S(=O)(=O)N(C)C3CCCCC3)ccc21 (configuration not stated) |  | inactive: 18.1%
Cc1ccc(N2CC(NC(=O)c3ccc(S(=O)(=O)N4CCCC4)cc3)CC2=O)cc1C (configuration not stated) | inactive | 
O=C(NCc1ccccc1)C1CCN(S(=O)(=O)c2ccc3c(c2)CCCN3C(=O)C2CCC2)CC1 |  | inactive: -7.49%
O=C(O)c1nc(=O)[nH]c(=O)[nH]1 |  | inactive: -6.94% [at 23.2 µM]
CN(C)CCCN=c1c2ccccc2n(C)c2[nH]c(=O)n(C)c(=O)c12 |  | inactive: 48.4%
COc1cccc(OC)c1C(=O)Nc1cccc(-c2cn3ccsc3n2)c1 |  | inactive: 13.3%
CCOc1ccc(N2CC(c3nc4ccccc4n3Cc3ccccc3F)CC2=O)cc1 (configuration not stated) |  | inactive: 2.35%
COc1ccc(-c2nnc(SCC(=O)NC3CCCC3)nc2-c2ccc(OC)c(OC)c2)cc1OC |  | inactive: 7.42%
Cc1ccc(NC(=O)NCc2cccn2Cc2ccccc2)c(C)c1 |  | inactive: 4.7%

Structure (SMILES) | outcome | activity change, negative = inhibition
CCCCCSc1ncnc2c1sc1nc(N3CCOCC3)c3c(c12)CCCC3 |  | inactive: 0.498%
Cc1ccc(Cl)cc1N1CCN(C(=O)CCNS(=O)(=O)c2ccc3c(c2)CCN3C(=O)C2CC2)CC1 | inactive | 
CCOC(=O)c1scc(-c2ccc(C)cc2)c1S(=O)(=O)N1CCN(c2ccccc2F)CC1 |  | inactive: -12.8%
O=C(CCC1N=C2c3ccccc3N=C(SCc3cccc(F)c3)N2C1=O)NCc1cccs1 (configuration not stated) |  | inactive: -4.63%
Cc1cccc(NC(=O)C(=O)NCC(c2cccnc2)N2CCc3ccccc3C2)c1C (configuration not stated) | inactive | 
CCOc1ccc(NC(=O)c2ccc(F)c(S(=O)(=O)N(CC)Cc3ccccc3)c2)cc1 | inactive | 
COC(=O)c1ccc(-c2nc3cc(NC(C)=O)ccc3o2)cc1 |  | inactive: 0.168%
CCOc1ccc(CCNC(=O)c2sc3ncccc3c2-n2cccc2)cc1OCC |  | inactive: 1.43%
Cc1nc2nc(SCC(=O)NC3CCC(C)CC3)nn2c(C)c1Cc1ccccc1 (configuration not stated) |  | inactive: 5.89%
CCCCc1nn2c(=O)cc(COC(=O)C3CCCCC3)nc2s1 |  | inactive: 36.1%
CCC(C)NC(=O)Cn1c(=O)n(-c2ccc(C)c(C)c2)c(=O)c2c3c(sc21)CCCCC3 (configuration not stated) |  | inactive: -1.85%
COc1ccc(OC)c(NC(=O)c2cc(S(=O)(=O)NCCc3ccc(Cl)cc3)ccc2F)c1 |  | inactive: 8.45%
COc1ccc(-c2nc(CNC(=O)Nc3ccccc3)c(C)o2)cc1 |  | inactive: -5.59%
COc1ccccc1N1CCN(C(=O)c2cc(S(=O)(=O)N3CCC(C)CC3)cn2C)CC1 | inactive | 
COc1cccc(Cn2c(CNS(=O)(=O)c3ccc(C(C)(C)C)cc3)nc3cccnc32)c1 |  | inactive: -5.64%
CCCN(c1ccc(C(C)C)cc1)S(=O)(=O)c1ccc2c(c1)oc(=O)n2CC(=O)OCC |  | inactive: -16.1%
COc1ccc(-n2c(=O)c3ccccc3n(Cc3cccc(C)c3)c2=O)cc1 |  | inactive: 7.07%
CCOC(=O)c1ccc(N2C(=O)c3n[nH]c(C)c3C2c2ccc(OCC)cc2)cc1 (configuration not stated) | inactive | 
Cc1ccccc1N(C)S(=O)(=O)c1nnc(NC(=O)C(C)C)s1 | inactive | 
COc1cc2c(-c3cc(Br)ccc3O)nc3c(c(C)nn3-c3ccccc3)c2cc1OC |  | inactive: -0.178%
CCCSc1nnc2[nH]c(=O)cc(C)n12 | inactive | 
O=C(Nc1nnc(S(=O)(=O)Nc2ccccc2)s1)C1CCCCC1 |  | inactive: -6.37%
CCOC(=O)Cn1c(=O)n(CC2CCCO2)c2nc(-c3ccc(C(C)C)cc3)nc(C(N)=O)c21 (configuration not stated) |  | inactive: -1.89%
